Reference: PubChem BioAssay AID463173 (ICCB-Longwood Screening Facility, Harvard Medical School, 2010)
Out of some 52,000 compounds screened, about 1,700 (3.3%) were called active. Rule as the data show it: active = survival mostly below about 52% (no sharp cut-off); inactive = mostly above about 56%. Some of the results follow.

tested on: Wild type; test: S. aureus survival, RN4220 and DeltatarO strains – OD600, teichoic acid synthesis inhibitors, primary screen (AID 463173); settings: S. aureus RN4220 wild type/DeltatarO growth, OD600, 18 h, active compounds read low, screened at 18.75 µg/mL (by protocol)

SMILES	survival
CCc1ccccc1NC(=O)C(CC)Sc1ncnc2c1sc1ccccc12 (centres undefined)	inactive: 68%
Cc1ccc(NC(=O)CN2C(=O)C(c3ccc(F)cc3)=NC23CCCCC3)c(C)c1	inactive: 68%
O=C(CCCCCn1c(=O)[nH]c2ccccc2c1=O)NCc1cccc(Cl)c1	inactive: 66%
Cc1ccccc1OC(=O)c1snnc1C	inactive: 85%
O=C(Cc1ccccc1)N(Cc1cccnc1)c1nc2c(F)cccc2s1	inactive: 70%
O=C(Nc1ccc(Cl)cc1F)c1oc(=O)c2ccccc2c1-c1ccccc1	inactive: 73%
O=C(NCc1ccc(Cl)cc1)c1ccc(CSCc2cccc(Cl)c2)o1	inactive: 131%
CCOc1ccccc1NC(=O)CSc1nc2c(c(=O)[nH]1)CCC2	inactive: 106%
CCOc1cccc2cc(-c3cn4c(n3)sc3cc(C)ccc34)c(=O)oc12	active: -6%
CCNC(=S)N1CCN(CCN=CC2=C(O)CC(C)(C)CC2=O)CC1	inactive: 109%
COc1ccc(OCc2nc3ccccc3n2C(C)c2ccccc2)cc1 (centres undefined)	active: -2%
Cc1ccnc(NS(=O)(=O)c2ccc(NC(=O)C(C)(C)Oc3ccc(Cl)cc3)cc2)n1	inactive: 61%
Fc1c(F)c(Oc2ccccc2)c(F)c(F)c1Oc1ccccc1	inactive: 129%
Cc1ccc(OCC(=O)Nc2cccc(OCc3cc(=O)n4ccccc4n3)c2)cc1C	inactive: 80%
Cc1cc(C)c2c(CC(=O)Nc3ccc(S(=O)(=O)N4CCCC(C)C4)cc3)coc2c1 (centres undefined)	inactive: 84%
O=C(Cc1ccccc1)N1CCSC1=S	inactive: 109%
CCC(C(=O)Nc1ccc(C(=O)OC)cc1)n1nc(-c2ccc(C)cc2)c2c(c1=O)CCCC2 (centres undefined)	inactive: 132%
O=S(=O)(c1ccc2oc(-c3cccnc3)nc2c1)c1ccc2oc(-c3cccnc3)nc2c1	inactive: 106%
CCOc1cc(C2Nc3ccccc3-c3nnc(SCc4ccccc4)nc3O2)ccc1OC (centres undefined)	inactive: 69%
Cc1cc(Br)ccc1NC(=O)C(Cc1ccccc1)NS(=O)(=O)c1ccc(Br)s1 (centres undefined)	inactive: 130%
C=C(C)Cn1c(SCC(=O)c2ccc(OC)cc2)nc2sc3c(c2c1=O)CCCC3	inactive: 49%
C#CCn1c(COc2ccccc2C)nc2ccccc21	inactive: 115%
COc1cccc(CNC(=O)c2cc3cccc4c3n2CC(C)S4)c1OC (centres undefined)	inactive: 82%

SMILES	survival
Cc1ccc(-c2noc(-c3ccc(N4CCC(C)CC4)c([N+](=O)[O-])c3)n2)cc1	inactive: 85%
Cc1ccc(-n2cc(-c3ccccc3)c3c(NC4CCCC4)ncnc32)cc1	inactive: 64%
COc1cc2c(=O)c(S(=O)(=O)c3ccc(F)cc3)cn(Cc3ccccc3C)c2cc1OC	inactive: 86%
CCN(Cc1ccccc1)C(=O)C1CCN(c2ncnc3c2nc2n3CCCCC2)CC1	inactive: 57%
Cc1cccc(N(C)C(=O)CN2C(=O)COc3ccc(S(=O)(=O)N4CCCCCC4)cc32)c1	inactive: 95%
COc1cc(OC)c(OC)cc1CNCCSc1nnnn1-c1ccccc1	inactive: 85%
Cn1c(CNC(=O)CSc2n[nH]c(-c3ccccc3Cl)n2)nc2ccccc21	inactive: 83%
Cc1cc(Br)ccc1NC(=O)CCS(=O)(=O)c1cccc2nonc12	inactive: 95%
COc1ccc(Cl)cc1NS(=O)(=O)c1cc(-c2cc(C)no2)ccc1C	inactive: 82%
CCOC(=O)c1ccc(NC(=O)C2Cc3ccccc3CN2S(=O)(=O)c2ccc(Cl)cc2)cc1 (centres undefined)	inactive: 86%
O=C(NCC(c1cccs1)S(=O)(=O)c1cccs1)c1ccccc1 (centres undefined)	inactive: 70%
CC(NC(=O)Cn1ncc2c3ccccc3n(Cc3ccc(F)cc3)c2c1=O)c1ccccc1 (centres undefined)	inactive: 85%
CCCCON1C(=O)c2cccc3cccc(c23)C1=O	inactive: 116%
CC(=O)c1sc2c(c1C)c(=O)n(-c1ccc(Cl)cc1)c(=O)n2Cc1ccc(Cl)cc1	inactive: 81%
Cc1cc(C)c(Cn2c(C)c(CNCCCc3ccccc3)c(C(=O)O)c2C)c(C)c1	inactive: 80%
CCOC(=O)c1c(NC(=O)c2noc3c2CC(C(C)(C)C)CC3)sc2c1CCCC2 (centres undefined)	inactive: 88%
Cc1ccc(C)c(N2CCN(C(=O)CN3C(=O)COc4ccc(S(=O)(=O)N5CCCCCC5)cc43)CC2)c1	inactive: 90%
Cc1cccc(NC(=O)c2cnn(-c3ccccc3)c2-n2cccc2)c1C	inactive: 78%
COc1ccc(-c2cc(C(=O)Nc3c(C(=O)c4ccc(Cl)cc4)oc4ccccc34)no2)cc1	inactive: 86%
CC(=O)N1CCC(N(Cc2ccco2)C(=O)Nc2cccc(C)c2)CC1	inactive: 134%
CCOC(=O)c1cc2c(=O)n3ccccc3nc2n(CC2CCCO2)c1=NC(=O)c1cccc(C(F)(F)F)c1 (centres undefined)	inactive: 119%
CCOC(=O)N1CCN(S(=O)(=O)N2CCCC(C(=O)NCc3cccc(OC)c3)C2)CC1 (centres undefined)	inactive: 56%
CCC1CN(C(=O)N2CCC(C(=O)NCc3ccc(C)o3)CC2)c2cc(C)ccc2O1 (centres undefined)	inactive: 90%

SMILES	survival
Cc1ccc2nc(NCCCNC(=O)c3cnccn3)c(C#N)cc2c1	inactive: 109%
CCOC(=O)c1cc2sc(C)cc2n1CC	inactive: 116%
O=C(NC1CC(=O)N(c2ccc(F)cc2)C1)c1cc2ccccc2o1 (centres undefined)	inactive: 146%
CC(=O)N1CCCc2cc(S(=O)(=O)N3CCC(C(=O)NCCC(C)C)CC3)ccc21	inactive: 77%
O=C(Nc1c(C(=O)N2CCOCC2)cnn1-c1ccccc1)c1ccccc1F	inactive: 104%
CN1CCN(C(c2ccccc2)c2sc3nc(-c4ccco4)nn3c2O)CC1 (centres undefined)	inactive: 59%
COc1ccccc1NC(=O)n1ncc2c(C)cccc21	inactive: 83%
CCOC(=O)c1nnc2c(-c3ccc(OC)cc3)c(C)nn2c1N	inactive: 123%
CC1CCc2nc(NC(=O)COc3ccc(C(C)(C)C)cc3)sc2C1 (centres undefined)	inactive: 93%
O=S(=O)(Nc1cccc(-c2ccc(N3CCCCC3)nn2)c1)c1cccs1	inactive: 71%
COC(=O)C1=C(C)NC2=C(C(=O)c3ccccc32)C1c1cc2c(cc1Cl)OCO2 (centres undefined)	inactive: 136%
Cc1cccc(CCn2c(=O)c3ccccc3n(Cc3cccc(F)c3)c2=O)c1	inactive: 82%
COc1ccc(OC)c(C2CC(=O)c3c([nH]c(C(=O)OCC4CCCCC4)c3C)C2)c1 (centres undefined)	inactive: 95%
Cc1csc2nc(COC(=O)COc3ccccc3F)cc(=O)n12	inactive: 57%
COc1cc2c(cc1OC)-c1n[nH]c(=S)n1C(C)(C)C2	inactive: 56%
CC(=O)c1cccc(NC(=O)CCS(=O)(=O)c2cc(Br)cc3c2N(C(=O)C2CC2)CC3)c1	inactive: 123%
CCCC(=O)N1CC(=O)Nc2ccc(Cl)cc2C1c1ccc(F)cc1 (centres undefined)	inactive: 75%
Cc1ccc2c(=O)c(C(=O)NC3CCCC3)c[nH]c2c1	inactive: 106%
CCS(=O)(=O)c1ncc(N(Cc2ccco2)Cc2sccc2C)c(C(=O)Nc2cc(C)ccc2C)n1	inactive: 121%
CCCn1c(=O)c2sccc2n2c(CCCC(=O)N3CCN(c4ccccc4)CC3)nnc12	inactive: 98%
NC(=O)CS(=O)(=O)c1ccc(Cl)cc1	inactive: 105%
COc1ccc(CCNC(=O)Cn2nnc(-c3ccc(C(F)(F)F)cc3)n2)cc1OC	inactive: 77%
Cn1c(C(=O)NCc2ccc(F)cc2)cc2c(=O)n(C)c3ccccc3c21	inactive: 97%

SMILES	survival
COc1ccc(C(=O)NCCc2sc(-c3cccc(F)c3)nc2C)cc1	inactive: 80%
COCCn1c(SCC(=O)Nc2ccc(F)c(Cl)c2)nc2c(oc3ccccc32)c1=O	inactive: 44%
CCCn1c(CCC(=O)O)ccc1-c1ccccc1	inactive: 111%
Cc1ccccc1NS(=O)(=O)c1ccc2[nH]cc(C(=O)N3CCCC3)c(=O)c2c1	inactive: 99%
Cc1nc2ccn(Cc3cccnc3)c(=O)c2cc1C(=O)Nc1ccc(OC(F)(F)F)cc1	inactive: 73%
O=C(Nc1ccccc1C(=O)OCc1cc(=O)n2nc(C3CC3)sc2n1)c1cccc(Cl)c1	inactive: 72%
Cc1sc2ncn(CC(=O)Nc3cccc(C(F)(F)F)c3)c(=O)c2c1S(=O)(=O)N1CCC(C)CC1	inactive: 92%
COc1cccc(C(=O)NC(=O)Nc2ccc(-c3cc(C(F)(F)F)nn3-c3ccccc3)cc2)c1	inactive: 140%
CCN1/C(=C/C=C2\SC(=S)N(C)C2=O)Oc2ccccc21	inactive: 104%
COc1ccc(C2c3c(-c4ccccc4O)n[nH]c3C(=O)N2Cc2ccco2)cc1 (centres undefined)	active: 10%
CCOC(=O)C1=C(CN2CCN(c3ccccc3)CC2)NC(=O)NC1c1ccc(C)cc1 (centres undefined)	inactive: 127%
Cc1ccc(Cl)cc1NC(=O)Cn1c(=O)c(CNc2ccccc2)cc2cc3c(cc21)OCCO3	inactive: 87%
CCCCn1c(-c2ccc(S(=O)(=O)N3CCOCC3)cc2)csc1=Nc1ccccc1	inactive: 54%
CCN(c1cccc(C)c1)S(=O)(=O)c1nnc(NC(=O)c2cccs2)s1	inactive: 26%
Cc1c(C(=O)Nc2ccccc2Br)oc2ccc(S(=O)(=O)N3CCCCC3)cc12	inactive: 71%
Cc1ccc(CSCC(=O)N2CCN(Cc3ccc4c(c3)OCO4)CC2)cc1	inactive: 106%
COc1ccc(-c2c(C)nn3c4c(cnc23)C(=O)CC(c2ccc(C)cc2)C4)cc1 (centres undefined)	inactive: 141%
O=C(CCCSc1nc(-c2ccco2)cc(C(F)(F)F)n1)NC1CCCCC1	inactive: 113%
Cc1cccc(Cn2c(CN3CCC(C(=O)NCCc4ccccc4)CC3)cc3ccccc32)c1	inactive: 128%
COc1ccc(C(=O)Nc2cc(C(F)(F)F)ccc2N2CCN(c3ccccc3)CC2)cc1OC	inactive: 73%
